Assay results taken from the supplement of paper PMC9151546.
Most values come without repeats; read them as rough.

Columns and labels:
CHO-K1 [1] = assay: hypodiploid nuclei frequency (% of nucleated events); higher = more hypodiploid events (aneugenic)
Description: (§1)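 Flow-cytometric in vitro micronucleus assay (Litron MicroFlow) in CHO-K1 cells in 96-well plates, 19 concentrations (4.5-200 µM, n=1 per concentration). Without S9, cells were exposed for 24 h and sampled at 48 h. With Aroclor 1254-induced rat liver S9, cells were exposed for 3-4 h and sampled at 27-28 h. Read-outs are %MN and %hypodiploid nuclei relative to nucleated events, and relative survival as the nuclei-to-bead ratio versus the 1% DMSO vehicle control (x100).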

CHO-K1 [2] = assay: relative survival (nuclei to bead ratio vs DMSO control) (% of vehicle control); higher = more surviving cells
Description: as §1

CHO-K1 [3] = assay: micronucleus frequency (% of nucleated events); higher = more micronuclei (genotoxic)
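Throughout, for hypodiploid nuclei frequency (% of nucleated events): hypodiploid nuclei gated on a flow cytometer with 488 nm excitation after SYTOX Green staining, cultures at 37 °C, positive controls vinblastine without S9 and cyclophosphamide with S9.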
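Throughout, for micronucleus frequency (% of nucleated events): cells lysed with nuclei stained by SYTOX Green, then micronucleus-gated events counted against nucleated events by flow cytometry with 488 nm excitation.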
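Throughout, for relative survival (nuclei to bead ratio vs DMSO control): Lysed-cell nuclei stained with SYTOX Green and counted against counting beads by flow cytometry at 488 nm excitation, with vinblastine (no S9) and cyclophosphamide (plus S9) as positive controls.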

O=CCCCC=O [Glutaraldehyde]
Settings | hypodiploid nuclei frequency, CHO-K1 [1] [%] | micronucleus frequency, CHO-K1 [3] [%] | relative survival, CHO-K1 [2]
concentration: 4.55 (µM), S9 metabolic activation: with S9, exposure time: 3-4 hours | 0.22 | 2.38 | 118
concentration: 4.55 (µM), S9 metabolic activation: without S9, exposure time: 24 hours | 0.68 | 2.5 | 73.3
concentration: 5.69 (µM), S9 metabolic activation: with S9, exposure time: 3-4 hours | 0.48 | 1.82 | 95.9
concentration: 5.69 (µM), S9 metabolic activation: without S9, exposure time: 24 hours | 0.72 | 1.94 | 70.9
concentration: 7.11 (µM), S9 metabolic activation: with S9, exposure time: 3-4 hours | 0.56 | 2.36 | 97.9
concentration: 7.11 (µM), S9 metabolic activation: without S9, exposure time: 24 hours | 0.72 | 2.56 | 71.7
concentration: 8.88 (µM), S9 metabolic activation: with S9, exposure time: 3-4 hours | 0.26 | 1.54 | 129
concentration: 8.88 (µM), S9 metabolic activation: without S9, exposure time: 24 hours | 0.74 | 2.36 | 83.1
concentration: 11.1 (µM), S9 metabolic activation: with S9, exposure time: 3-4 hours | 0.28 | 1.54 | 81.6
concentration: 11.1 (µM), S9 metabolic activation: without S9, exposure time: 24 hours | 0.36 | 1.96 | 90.5
concentration: 13.9 (µM), S9 metabolic activation: with S9, exposure time: 3-4 hours | 0.37 | 2.36 | 91.4
concentration: 13.9 (µM), S9 metabolic activation: without S9, exposure time: 24 hours | 0.62 | 1.26 | 83.8
concentration: 17.4 (µM), S9 metabolic activation: with S9, exposure time: 3-4 hours | 0.2 | 1.7 | 84.9
concentration: 17.4 (µM), S9 metabolic activation: without S9, exposure time: 24 hours | 0.64 | 1.86 | 71.7
concentration: 21.7 (µM), S9 metabolic activation: with S9, exposure time: 3-4 hours | 0.27 | 1.13 | 74.2
concentration: 21.7 (µM), S9 metabolic activation: without S9, exposure time: 24 hours | 0.48 | 2.26 | 74.5
concentration: 27.1 (µM), S9 metabolic activation: with S9, exposure time: 3-4 hours | 0.18 | 1.48 | 127
concentration: 27.1 (µM), S9 metabolic activation: without S9, exposure time: 24 hours | 0.76 | 2.24 | 94.4
concentration: 33.9 (µM), S9 metabolic activation: with S9, exposure time: 3-4 hours | 0.24 | 1.44 | 145
concentration: 33.9 (µM), S9 metabolic activation: without S9, exposure time: 24 hours | 0.68 | 3.58 | 88
concentration: 42.4 (µM), S9 metabolic activation: with S9, exposure time: 3-4 hours | 0.34 | 2.04 | 129
concentration: 42.4 (µM), S9 metabolic activation: without S9, exposure time: 24 hours | 0.72 | 2.86 | 69.4
concentration: 53 (µM), S9 metabolic activation: with S9, exposure time: 3-4 hours | 0.34 | 1.64 | 130
concentration: 53 (µM), S9 metabolic activation: without S9, exposure time: 24 hours | 0.94 | 2.86 | 61.1
concentration: 66.2 (µM), S9 metabolic activation: with S9, exposure time: 3-4 hours | 0.06 | 1.72 | 115
concentration: 66.2 (µM), S9 metabolic activation: without S9, exposure time: 24 hours | 0.76 | 3.84 | 56.6
concentration: 82.7 (µM), S9 metabolic activation: with S9, exposure time: 3-4 hours | 0.22 | 1.68 | 110
concentration: 82.7 (µM), S9 metabolic activation: without S9, exposure time: 24 hours | 0.66 | 3.4 | 68.4
concentration: 103 (µM), S9 metabolic activation: with S9, exposure time: 3-4 hours | 0.36 | 1.14 | 80.5
concentration: 103 (µM), S9 metabolic activation: without S9, exposure time: 24 hours | 0.69 | 3.72 | 54.4
concentration: 129 (µM), S9 metabolic activation: with S9, exposure time: 3-4 hours | 0.62 | 1.96 | 79
concentration: 129 (µM), S9 metabolic activation: without S9, exposure time: 24 hours | 0.88 | 3.48 | 47.1
concentration: 162 (µM), S9 metabolic activation: with S9, exposure time: 3-4 hours | 1.3 | 3.04 | 59.2
concentration: 162 (µM), S9 metabolic activation: without S9, exposure time: 24 hours | – | – | 31.9
concentration: 202 (µM), S9 metabolic activation: with S9, exposure time: 3-4 hours | 1.63 | 3.47 | 45.5
concentration: 202 (µM), S9 metabolic activation: without S9, exposure time: 24 hours | – | – | 31.7

CCN(CC)N=O [N-Nitrosodiethylamine]
Settings | hypodiploid nuclei frequency, CHO-K1 [1] [%] | micronucleus frequency, CHO-K1 [3] [%] | relative survival, CHO-K1 [2]
concentration: 4.57 (µM), S9 metabolic activation: with S9, exposure time: 3-4 hours | 0.24 | 1.8 | 138
concentration: 4.57 (µM), S9 metabolic activation: without S9, exposure time: 24 hours | 0.36 | 2.18 | 143
concentration: 5.71 (µM), S9 metabolic activation: with S9, exposure time: 3-4 hours | 0.24 | 1.46 | 147
concentration: 5.71 (µM), S9 metabolic activation: without S9, exposure time: 24 hours | 0.44 | 1.96 | 121
concentration: 7.14 (µM), S9 metabolic activation: with S9, exposure time: 3-4 hours | 0.26 | 1.28 | 120
concentration: 7.14 (µM), S9 metabolic activation: without S9, exposure time: 24 hours | 0.56 | 2.12 | 133
concentration: 8.93 (µM), S9 metabolic activation: with S9, exposure time: 3-4 hours | 0.38 | 1.64 | 120
concentration: 8.93 (µM), S9 metabolic activation: without S9, exposure time: 24 hours | 0.62 | 1.6 | 113
concentration: 11.2 (µM), S9 metabolic activation: with S9, exposure time: 3-4 hours | 0.32 | 1.5 | 136
concentration: 11.2 (µM), S9 metabolic activation: without S9, exposure time: 24 hours | 0.5 | 1.6 | 136
concentration: 14 (µM), S9 metabolic activation: with S9, exposure time: 3-4 hours | 0.28 | 2.08 | 132
concentration: 14 (µM), S9 metabolic activation: without S9, exposure time: 24 hours | 0.6 | 2.44 | 128
concentration: 17.4 (µM), S9 metabolic activation: with S9, exposure time: 3-4 hours | 0.3 | 1.6 | 116
concentration: 17.4 (µM), S9 metabolic activation: without S9, exposure time: 24 hours | 0.54 | 1.8 | 101
concentration: 21.8 (µM), S9 metabolic activation: with S9, exposure time: 3-4 hours | 0.36 | 1.98 | 121
concentration: 21.8 (µM), S9 metabolic activation: without S9, exposure time: 24 hours | 0.66 | 2.42 | 98.5
concentration: 27.2 (µM), S9 metabolic activation: with S9, exposure time: 3-4 hours | 0.62 | 2.68 | 142
concentration: 27.2 (µM), S9 metabolic activation: without S9, exposure time: 24 hours | 0.78 | 2.78 | 107
concentration: 34.1 (µM), S9 metabolic activation: with S9, exposure time: 3-4 hours | 0.32 | 2.76 | 136
concentration: 34.1 (µM), S9 metabolic activation: without S9, exposure time: 24 hours | 1.06 | 2.74 | 140
concentration: 42.6 (µM), S9 metabolic activation: with S9, exposure time: 3-4 hours | 0.42 | 2 | 133
concentration: 42.6 (µM), S9 metabolic activation: without S9, exposure time: 24 hours | 0.82 | 3.02 | 119
concentration: 53.2 (µM), S9 metabolic activation: with S9, exposure time: 3-4 hours | 0.28 | 2.02 | 123
concentration: 53.2 (µM), S9 metabolic activation: without S9, exposure time: 24 hours | 0.76 | 2.3 | 135
concentration: 66.5 (µM), S9 metabolic activation: with S9, exposure time: 3-4 hours | 0.16 | 1.38 | 129
concentration: 66.5 (µM), S9 metabolic activation: without S9, exposure time: 24 hours | 0.74 | 3.4 | 128
concentration: 83.1 (µM), S9 metabolic activation: with S9, exposure time: 3-4 hours | 0.24 | 1.8 | 119
concentration: 83.1 (µM), S9 metabolic activation: without S9, exposure time: 24 hours | 0.88 | 3.62 | 119
concentration: 104 (µM), S9 metabolic activation: with S9, exposure time: 3-4 hours | 0.3 | 1.4 | 117
concentration: 104 (µM), S9 metabolic activation: without S9, exposure time: 24 hours | 0.94 | 2.88 | 130
concentration: 130 (µM), S9 metabolic activation: with S9, exposure time: 3-4 hours | 0.18 | 1.3 | 128
concentration: 130 (µM), S9 metabolic activation: without S9, exposure time: 24 hours | 1.44 | 3.34 | 120
concentration: 162 (µM), S9 metabolic activation: with S9, exposure time: 3-4 hours | 0.3 | 1.66 | 140
concentration: 162 (µM), S9 metabolic activation: without S9, exposure time: 24 hours | 1.3 | 3.6 | 114
concentration: 203 (µM), S9 metabolic activation: with S9, exposure time: 3-4 hours | 0.48 | 3.14 | 121
concentration: 203 (µM), S9 metabolic activation: without S9, exposure time: 24 hours | 1.2 | 3.36 | 97.1
